Hit rate of the full screen: of about 420,000 compounds, about 50,000 (12%) were called active. The shares of active, inactive and inconclusive entries below differ from those in the screen. The call rests on the fitted dose curve; in most records, active means well fitted inhibition curve with a large enough effect; inconclusive means small, poorly fitted or top-dose-only effect; inactive means flat fitted curve, though single readings scatter. No potency is given beside an inconclusive call; the fits are too rough.
test: qHTS for Inhibitors of human tyrosyl-DNA phosphodiesterase 1 (TDP1): qHTS in cells in presence of CPT; details: chicken DT40 Tdp1-/-;hTDP1 cells + 20 nM CPT, ATP luminescence, 48 h; activity change, negative = growth inhibition: at 46.2 µM (top of the series); further: nearly all actives have a fitted effect of over 55% in size
Procedure, shortened: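 Chicken DT40 Tdp1-/- cells stably complemented with human TDP1 were seeded at 400 cells/well in medium containing 20 nM camptothecin, exposed to pin-transferred compounds, and grown at 37 °C for at least 48 hr. Viability was read as ATP luminescence.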
On the % scale 0 is the no-effect control and ±100 the full control effect; potency means the concentration at half of the fitted maximal effect; tags describe the fitted curve by direction and shape.

SMILES | Potency | activity change, negative = growth inhibition
C[C@@H]1CN([C@H](C)CO)C(=O)c2cc(C3=CCCCC3)cnc2O[C@@H]1CN(C)Cc1ccccc1C(=O)O | inactive | –
C[C@H]1CN([C@@H](C)CO)C(=O)c2cccc(NC(=O)c3cnccn3)c2O[C@@H]1CN(C)C(=O)Nc1ccc2c(c1)OCO2 | inactive | –
Cn1cc(-c2nc3cnc(Oc4cccc(Cl)c4)nc3n(CCC#N)c2=O)c2ccccc21 | inactive | –
COc1ccc(N=Cc2c(O)[nH]c3ccccc23)cc1 | inconclusive [inhibitor, single point] | –
O=c1c(-c2nnc(SCc3ccc(Cl)cc3Cl)o2)cccn1Cc1ccccc1 | inconclusive [inhibitor, single point] | –
Cc1cn(C2CCCO2)c(=O)nc1N (stereo unspecified) | – | inconclusive: -30.5% [inhibitor]
Cc1ccc(-c2nn(C)c(=O)c3ccccc23)cc1S(=O)(=O)N1CCOCC1 | active: 11.2 µM | –
C[C@@H]1CN([C@@H](C)CO)C(=O)c2cc(C#Cc3ccccc3)cnc2O[C@H]1CN(C)C(=O)c1ccccc1F | inconclusive [inhibitor, single point] | –
Cc1c(C(=O)N(Cc2nnc(-c3ccccc3Cl)o2)C2CC2)oc2ccccc12 | active: 16.4 µM | –
O=C(COc1ccccc1)NC1CCN(Cc2ccccc2)CC1 | inactive | –
Cc1ccc(NC(=O)C(=O)NCC(c2cccnc2)N2CCOCC2)cc1Cl (stereo unspecified) | inconclusive [inhibitor, single point] | –
Cc1nc2c(-c3ccccc3)c(C)[nH]n2c(=O)c1Cc1ccccc1 | inconclusive [inhibitor, single point] | –
CC1CCC(NC(=O)N(CCCl)N=O)CC1 (stereo unspecified) | inconclusive [inhibitor, single point] | –
CCN(CC)CCN(C(=O)c1ccc(S(=O)(=O)N(C)C2CCCCC2)cc1)c1nc2c(C)cccc2s1 | active: 23.1 µM | –
O=C(Cn1ncn2cccc2c1=O)N1CCCCC1 | inactive | –
Cc1nc(N)[nH]c(=O)c1CCCNc1ccc([N+](=O)[O-])cc1 | inactive | –
O=C1NC[C@H](CCCCN2C[C@H](Cc3ccc(O)cc3)N(CC3CCCCC3)C(=O)C2=O)N(CC2CCCCC2)C1=O | inactive | –
COc1ccc(OC)c2[nH]c(C(=O)O)cc12 | inactive | –
O=C(C[n+]1ccc(C(=O)N/N=C/c2ccc(OCc3ccccc3)cc2)cc1)c1ccccc1 | – | inconclusive: -30% [inhibitor]
CC(NC(=O)CN1CCOCC1)c1ccccc1 (stereo unspecified) | inactive | –
Cc1c(Cl)cccc1NC(=O)CNC(=O)C1CCN(C(=O)Nc2ccccc2)CC1 | inactive | –

— PubChem BioAssay AID686979 (National Center for Advancing Translational Sciences (NCATS), 2013)
